According to article PMC4336329 (PLoS ONE, 2015):
Among all 310,000 compounds or so, about 14,000 (4.5%) showed an effect of 50% or more. The effect is printed as a negative number. The list shows a part of the results.

Each compound was assayed against human ether-à-go-go-related gene (hERG) potassium channel (human, UniProt Q12809) (assay: primary screen, population patch clamp on CHO cells stably expressing hERG).
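Also: peak tail current of the secondary pulse compared with the same well before compound.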

Sequence of human ether-à-go-go-related gene (hERG) potassium channel (Q12809 whole entry, looked up): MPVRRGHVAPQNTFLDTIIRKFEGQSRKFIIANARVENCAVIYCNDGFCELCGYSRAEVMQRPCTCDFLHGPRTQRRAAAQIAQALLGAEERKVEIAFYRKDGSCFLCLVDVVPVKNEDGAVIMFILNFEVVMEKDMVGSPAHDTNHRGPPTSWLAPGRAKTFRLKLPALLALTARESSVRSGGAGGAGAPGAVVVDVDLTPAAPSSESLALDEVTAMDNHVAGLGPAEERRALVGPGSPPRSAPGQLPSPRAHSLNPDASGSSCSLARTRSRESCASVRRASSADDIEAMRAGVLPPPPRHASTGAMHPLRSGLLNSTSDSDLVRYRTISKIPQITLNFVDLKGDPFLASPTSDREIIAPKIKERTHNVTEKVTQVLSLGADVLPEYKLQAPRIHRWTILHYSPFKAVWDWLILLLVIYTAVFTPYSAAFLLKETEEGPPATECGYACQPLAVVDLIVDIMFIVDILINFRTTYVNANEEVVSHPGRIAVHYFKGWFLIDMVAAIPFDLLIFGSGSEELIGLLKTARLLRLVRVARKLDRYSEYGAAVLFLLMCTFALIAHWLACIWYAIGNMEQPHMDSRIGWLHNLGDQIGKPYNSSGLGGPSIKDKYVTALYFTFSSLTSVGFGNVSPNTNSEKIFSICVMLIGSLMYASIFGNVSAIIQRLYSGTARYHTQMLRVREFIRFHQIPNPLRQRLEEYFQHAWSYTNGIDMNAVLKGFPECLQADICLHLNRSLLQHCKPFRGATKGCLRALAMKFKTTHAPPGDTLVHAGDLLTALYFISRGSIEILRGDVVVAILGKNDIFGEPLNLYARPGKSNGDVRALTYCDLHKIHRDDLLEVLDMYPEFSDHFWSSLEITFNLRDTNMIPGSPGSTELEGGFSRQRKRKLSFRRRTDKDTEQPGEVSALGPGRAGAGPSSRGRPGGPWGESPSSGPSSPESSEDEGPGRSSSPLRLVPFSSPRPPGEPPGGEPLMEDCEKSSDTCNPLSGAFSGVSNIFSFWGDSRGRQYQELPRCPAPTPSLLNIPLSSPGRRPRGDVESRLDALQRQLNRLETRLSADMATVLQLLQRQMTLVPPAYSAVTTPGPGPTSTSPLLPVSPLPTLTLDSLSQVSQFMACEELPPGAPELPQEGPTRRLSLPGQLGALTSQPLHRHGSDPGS

Compared with Cn1nnc2cc(NC(=O)Nc3cccc(C(F)(F)F)c3)ccc21, CC(=O)Nc1ccc(NC(=O)CCCSc2nc3ccccc3s2)cc1 is lower in “hERG current change (%, negative = inhibition) at 10uM” value: 19% for the first, 5.25% for the second.

First: Cc1ccc2c(c1)cc1c(=O)n(CC(=O)NCc3ccccn3)nc(C)n12
Second: Cc1cc(C)cc(OCC(=O)OCc2nnc(-c3ccccc3)o2)c1
The “hERG current change (%, negative = inhibition) at 10uM” value of the first is lower: -7.45% for the first, 12.4% for the second.

Going from COc1ccccc1C(CNC(=O)C1CC(=O)N(Cc2ccccc2)C1)N1CCCC1 (centres unmarked) to COc1ccc(CN2CCN(C)CC2)cc1OCc1ccccc1, the “hERG current change (%, negative = inhibition) at 10uM” value falls from 9.32% to -19%.

Going from S=c1[nH]nc(-c2cccnc2)n1/N=C/C(Cl)=C\c1ccccc1 to CC(/C=C1\SC(=S)N(NS(=O)(=O)c2ccccc2)C1=O)=C\c1ccccc1, the “hERG current change (%, negative = inhibition) at 10uM” value falls from 10.4% to -5.09%.

Compared with CCN(CC)c1ccc(S(=O)(=O)N2CCOCC2)cc1NC(=O)COC(=O)c1ccco1, O=C(Nc1ccc(S(=O)(=O)N2CCCC2)cc1)c1cccnc1 is higher in “hERG current change (%, negative = inhibition) at 10uM” value: -34.9% for the first, 5.48% for the second.

Compared with COC(=O)C1CCN(C(=O)COC(=O)c2cc([N+](=O)[O-])ccc2N2CCOCC2)CC1, CCOC(=O)N1CCC(NS(=O)(=O)c2cc(C(=O)OC)n(C)c2)CC1 is higher in “hERG current change (%, negative = inhibition) at 10uM” value: -13.6% for the first, 5.24% for the second.

First: CC(C)N(Cc1ccccc1)S(=O)(=O)c1ccc2c(c1)NC(=O)CO2
Second: CC(C)CNC(=O)c1ccccc1NC(=O)CN(c1ccc2c(c1)OCCO2)S(C)(=O)=O
The “hERG current change (%, negative = inhibition) at 10uM” value of the first is higher: 5.3% for the first, 2.61% for the second.

Going from O=C(c1cn(-c2ccccc2)nc1-c1ccccc1)n1nnc2ccccc21 to COCCOC(=O)C1=C(C)N(c2ccccc2)C(=S)NC1c1ccccc1C(F)(F)F (centres unmarked), the “hERG current change (%, negative = inhibition) at 10uM” value falls from 12% to -5.87%.

First: O=C(NCc1ccco1)C1CCCN1C(=O)Nc1ccccc1[N+](=O)[O-] (centres unmarked)
Second: COC(=O)C1=C(c2ccc(F)cc2OCc2ccccc2)C[C@@H]2CC[C@H]1N2C(=O)NCCO
The “hERG current change (%, negative = inhibition) at 10uM” value of the first is higher: 8.59% for the first, 3.42% for the second.

Going from CN(C)/C=C(\C#N)C(N)=C(C#N)C#N to Cc1nc(N(C)C)c2sc(=S)n(C)c2n1, the “hERG current change (%, negative = inhibition) at 10uM” value falls from 16.9% to -6.82%.

First: Cc1cc(C)c(C#N)c(OCC(=O)Nc2ccccc2)n1
Second: CCCCOC(=O)c1ccc(NC(=O)COC(=O)CSc2nc(C)cc(C)n2)cc1
The “hERG current change (%, negative = inhibition) at 10uM” value of the first is lower: 12.1% for the first, 13.5% for the second.

Going from Cc1ccc(C)c(C(=O)CSc2nc(C)cc(=O)[nH]2)c1 to CC(=O)NC1=NN(C(C)=O)C2(S1)C(=O)N(CC(C)C)c1ccc(C)cc12 (centres unmarked), the “hERG current change (%, negative = inhibition) at 10uM” value rises from 10.9% to 12.1%.

Compared with Cc1cc(C)n2cc(CSc3nnnn3C)nc2n1, CCOC(=O)c1cnc(SCc2nc(N)nc(Nc3ccc(OC)cc3)n2)nc1N is higher in “hERG current change (%, negative = inhibition) at 10uM” value: 2.06% for the first, 8.19% for the second.

First: Cc1c(O)c(=O)ccn1Cc1ccccc1
Second: COc1ccc(NC(=O)c2sc(-c3ccccc3)nc2C)c(OC)c1
The “hERG current change (%, negative = inhibition) at 10uM” value of the first is lower: 6.39% for the first, 11.9% for the second.

Compared with O=S(=O)(c1ccc(F)cc1)N1CCN(c2ccc(F)cc2)CC1, CN1CCN(S(=O)(=O)c2cccc(C(=O)Nc3nc(-c4ccccc4)cs3)c2)CC1 is lower in “hERG current change (%, negative = inhibition) at 10uM” value: -14.5% for the first, -25.9% for the second.

Going from COc1ccc(C(C)=O)cc1CC(=O)Nc1ccc2c(c1)CCC2 to COc1ccc2[nH]c(=O)c(CN(C)C(=O)c3ccncc3)cc2c1, the “hERG current change (%, negative = inhibition) at 10uM” value falls from 4.13% to -4.37%.

Compared with CCCSc1ccc([C@@H]2[C@H]3C(=O)N(CC)C(=O)[C@H]3[C@]3(C(=O)OC)CCCN23)cc1OC.O=C(O)C(F)(F)F, CCCCn1c(N)c(N(CCOC)C(=O)CN2C(=O)C3CCCCC3C2=O)c(=O)[nH]c1=O (centres unmarked) is higher in “hERG current change (%, negative = inhibition) at 10uM” value: -34.8% for the first, 2.24% for the second.

First: Brc1ccccc1OCCOc1cccc2cccnc12
Second: CCc1ccc(OCCCC(=O)Nc2cccc(C(=O)O)c2)cc1
The “hERG current change (%, negative = inhibition) at 10uM” value of the first is higher: 14.1% for the first, 10.7% for the second.

First: Cc1c(OCC(=O)NCCN2CCOCC2)ccc2c1oc(=O)c1ccccc12
Second: O=C(Nc1cccc(Cl)c1)N(CCN1CCOCC1)Cc1cccc(Cl)c1
The “hERG current change (%, negative = inhibition) at 10uM” value of the first is lower: -59.6% for the first, -22.1% for the second.

First: Cc1nc(CC(=O)N2CCN(S(=O)(=O)c3ccccc3C#N)CC2)cs1
Second: O=C(c1ccc2c(=O)n3c(nc2c1)CCCCC3)N1CCN(c2ccc([N+](=O)[O-])cc2)CC1
The “hERG current change (%, negative = inhibition) at 10uM” value of the first is higher: 10.3% for the first, -73% for the second.

Compared with CCOC(=O)[C@H]1[C@H]2COc3ccccc3[C@@H]2N2C(=O)c3ccc(C)cc3NC(=O)[C@@]12C, COc1ccc2[nH]c(=O)c(CN(Cc3ccccc3OC)Cc3nnnn3CC3CCCO3)cc2c1 (centres unmarked) is lower in “hERG current change (%, negative = inhibition) at 10uM” value: -3.64% for the first, -40.7% for the second.

First: CCCOc1ccc(-c2nnn(CC(=O)N3CCCCC3)n2)cc1
Second: O=C(Nc1ccc(F)cc1F)C1CCCN(c2ncnc3c2nc2n3CCCCC2)C1 (centres unmarked)
The “hERG current change (%, negative = inhibition) at 10uM” value of the first is higher: 12.9% for the first, -62% for the second.

Compared with Cn1c(=O)c2c(SCC(=O)N3CCOCC3)nc(C3CC3)nc2n(C)c1=O, Cn1c(SCC(=O)Nc2nccs2)nnc1C1CC1 is higher in “hERG current change (%, negative = inhibition) at 10uM” value: -11.6% for the first, 13.4% for the second.

Going from O=C(CCl)c1ccc2[nH]c(=O)oc2c1 to C=CCNC(=O)/C(=C\c1ccc2c(c1)OCO2)NC(=O)c1ccc(Br)cc1, the “hERG current change (%, negative = inhibition) at 10uM” value falls from 11.8% to -30%.

Compared with COc1cccc(/C=N/NC(=O)C[n+]2ccccc2)c1OC.[Cl-], COc1cccc(CNC(=O)CCNS(=O)(=O)c2cccs2)c1 is higher in “hERG current change (%, negative = inhibition) at 10uM” value: -6.23% for the first, -5.11% for the second.

Going from CCSc1nnc(Cn2c(=O)sc3ccccc32)n1C to c1ccc2sc(NC3=NCN(Cc4ccc5c(c4)OCO5)CN3)nc2c1, the “hERG current change (%, negative = inhibition) at 10uM” value falls from 16.2% to 4.28%.

First: COc1ccc(/C=N/NC(=O)c2ccn[nH]2)cc1CN1CCOCC1
Second: Oc1ccc(Cl)cc1C=Nc1ccc(Br)cc1
The “hERG current change (%, negative = inhibition) at 10uM” value of the first is lower: -14.8% for the first, 10.1% for the second.

First: O=c1oc(-c2cccs2)nc2sc3c(c12)CCC3
Second: CC(C)Oc1ccc(CC2CCC(=O)N(C)C2=O)cc1 (centres unmarked)
The “hERG current change (%, negative = inhibition) at 10uM” value of the first is higher: 4.93% for the first, -13% for the second.
